Measurements: patent publication US20240025993A1, “CD19 BINDING MOLECULES AND USES THEREOF” (NOVARTIS AG, priority 2020, published 2024)
Read-outs that look alike come from different tables or passages of the source. Marks after values point to notes of the source that are not given here.

Columns and labels:
[1] = system: OCI-LY-19 diffuse large B-cell lymphoma tumor; conditions: mouse, in vivo, iv
[2] = system: OCI-LY-19 DLBCL subcutaneous tumor; test: OCI-LY-19 DLBCL subcutaneous tumor model in huCD34+ NSG mice, single dose range finding (Example 30); conditions: single dose IV; for ΔT/ΔC (%): Day 24
T cells = test: TBM and BBM binding to T cells by flow cytometry (Example 19); parameters: species or system human; conditions: 33 μg/ml-0.005 μg/ml; H variants
Description: Peripheral blood mononuclear cells (PBMCs) previously isolated and cryopreserved from 2 Leukopak donors (Hemacare) were thawed and Pan T cells were isolated by negative selection using the Pan T cell Isolation Kit, human (Miltenyi Biotec, Cat #130-096-535) following the manufacturer's protocol. T cells were resuspended in FACS Buffer and 100,000 cells were added to each well of a 96 well round bottom plate. A dilution series of CD3med TSP1, CD3hi TSP1, CD3hi BSP1, and CD3hi TSP1C ranging from 33 μg/ml-0.005 μg/ml was added to cells and incubated on ice for 1 hour. Cells were washed twice, resuspended in 100 pl of anti-human IgG secondary antibody and incubated on ice for another hour. After the incubation, cells were washed twice, resuspended in 100 pl of fixable viability dye and incubated on ice for 30 min. After washing twice again, cells were resuspended in 120 pl of FACS buffer. The cells were then run on BD LSR Fortessa and data was analyzed using FlowJo to determine the MFI of anti-human IgG secondary antibody, which was plotted against antibody concentration.

OCI-LY-19 cells = test: Re-challenge RTCC assay (Example 24); assay type: cell-based, human; conditions: E:T 1:1; dose titration RTCC 2 nM-0.000001 nM; H variants
Description: (§1) OCI-LY-19 and Karpas422 target cells stably expressing firefly luciferase were plated in a Costar 6 well plate in T Cell Media (TCM). PBMCs previously isolated and cryopreserved from 2 Leukopak donors were thawed and Pan T cells were isolated (as described earlier). […] The plates were incubated for 4 days for OCI-LY-19 and 5 days for Karpas 422 cells. At the end of incubation, the killing of target cells was determined using the luminescence signal. The absolute T cell counts from each antibody treated condition was also determined. For the next round of rechallenge, it was ensured that the killing of target cells was equivalent across various antibody conditions. […] Additionally, a dose titration RTCC at a E:T of 1:1 and a concentration range of 2 nM-0.000001 nM was set-up using T cells from the different antibody treated conditions with a 4 day incubation used for each cell line. The killing of target cells was determined using the luminescence signal to generate dose response curves. At the end of the challenge, the above process was repeated once more for Karpas 422 and twice more for OCI-LY-19 cells.

Karpas 422 cells = test: Re-challenge RTCC assay (Example 24); assay type: cell-based, human; conditions: E:T 1:1; dose titration RTCC 2 nM-0.000001 nM; H variants
Description: as §1

[3] = system: Daudi-Luc Burkitt's lymphoma subcutaneous tumor; test: Daudi-Luc Burkitt's lymphoma subcutaneous tumor model, human PBMC adoptive transfer, NSG mice (Example 31); assay type: in vivo; conditions: single dose IV; for Regression (%): Day 36
Description: On Day 0, Daudi-Luc cells were harvested and suspended in a 1:1 mixture of Hanks Balanced Salt Solution (HBSS) and Matrigel at a concentration of 50×10^6 cells/mL.
Tumor volume and body weights were recorded twice weekly. Tumor volume was measured by caliper.
On day 36 following Daudi-Luc implantation, 25% of animals from the Tumor+AdT control group were euthanized due to tumor volume.

Karpas422 target cells = test: RTCC assay (Example 17); assay type: cell-based, human; conditions: E:T 1:1, 96 hour; H variants
Description: The purified TBMs were compared across multiple donor effector cells. Briefly, huCD19-expressing Nalm6 and Karpas422 target cells were engineered to overexpress firefly luciferase. Cells were harvested and resuspended in RPMI medium (Invitrogen #11875-093) with 10% FBS. 5,000 target cells per well were plated in a flat-bottom 384-well plate. Human pan T effector cells were isolated via negative selection (Stemcell Technologies #17951) from two donors from cryopreserved PBMCs that were separated from a leukopak (Hemacare #PB001F-1) by Ficoll density gradient centrifugation. Purified T cells were then added to the plate to obtain a final E:T ratio of 3:1, 1:1, 1:3 or 1:5. Co-cultured cells were incubated with serial dilutions of all constructs and controls. For normalization, average maximum luminescence refers to target cells co-incubated with effector cells, but without any test construct. After an incubation of 48, 72 or 96 hr at 37° C., 5% CO2, OneGlo luciferase substrate (Promega #E6120) was added to the plate. Luminescence was measured on an Envision plate reader after a 10 minute incubation. Percent specific lysis was calculated using the following equation: Specific lysis (%)=(1−(sample luminescence/average maximum luminescence))*100 […]

Toledo target cells = test: RTCC assay on multiple cell lines (Example 22); assay type: cell-based, human; conditions: E:T 1:1, 48 hour; H variants
Description: (§2) The purified TBMs were compared across multiple donor effector cells. Briefly, huCD19-expressing Nalm6 and Karpas422 target cells were engineered to overexpress firefly luciferase. Cells were harvested and resuspended in RPMI medium (Invitrogen #11875-093) with 10% FBS. 5,000 target cells per well were plated in a flat-bottom 384-well plate. Human pan T effector cells were isolated via negative selection (Stemcell Technologies #17951) from two donors from cryopreserved PBMCs that were separated from a leukopak (Hemacare #PB001F-1) by Ficoll density gradient centrifugation. Purified T cells were then added to the plate to obtain a final E:T ratio of 3:1, 1:1, 1:3 or 1:5. Co-cultured cells were incubated with serial dilutions of all constructs and controls. For normalization, average maximum luminescence refers to target cells co-incubated with effector cells, but without any test construct. After an incubation of 48, 72 or 96 hr at 37° C., 5% CO2, OneGlo luciferase substrate (Promega #E6120) was added to the plate. Luminescence was measured on an Envision plate reader after a 10 minute incubation. Percent specific lysis was calculated using the following equation: Specific lysis (%)=(1−(sample luminescence/average maximum luminescence))*100
(§3) Nalm6 KO was generated from Nalm6 parental cell line by using CRISPR-CAS9 technology and was confirmed to lack hCD19 expression. Oci-Ly19, Toledo, Nalm6, Nalm6 KO and K562 target cells were engineered to overexpress firefly luciferase. RTCC assays were performed with the different cells lines according to the Materials and Methods described in Example 9, but with a final E:T ratio of 1:1 and a 48 hour incubation.

Nalm6 target cells = test: RTCC assay on multiple cell lines (Example 22); assay type: cell-based, human; conditions: E:T 1:1, 48 hour; H variants
Description: as §2, §3

Oci-Ly19 target cells = test: RTCC assay on multiple cell lines (Example 22); assay type: cell-based, human; conditions: E:T 1:1, 48 hour; H variants
Description: as §2, §3

B1: CD3med TSP1: trispecific as CD3hi TSP1 but with medium affinity (CD3med) anti-CD3 scFv; R and H variants (antibody)
heavy: QVQLVQSGAEVKKPGASVKVSCKASGYTFTTYWIQWVRQAPGQRLEWMGAVYPGDADTRYTQKFQGRVTLTADRSASTAYMELSSLRSEDTAVYYCGRDAGLEYYALDYWGQGTLVTVSSASTKGPSVFPLAPSSKSTSGGTAALGCLVKDYFPEPVTVSWNSGALTSGVHTFPAVLQSSGLYSLSSVVTVPSSSLGTQTYICNVNHKPSNTKVDKRVEPKSCGGGGSGGGGSEVQLVESGGGLVQPGGSLKLSCAASGFTFNTYAMNWVRQASGKGLEWVGRIRSKYNNYATYYADSVKDRFTISRDDSKNTAYLQMNSLKTEDTAVYYCVRHGNFGNSYVSWFAHWGQGTLVTVSSGGGGSGGGGSGGGGSGGGGSQAVVTQEPSLTVSPGGTVTLTCGSSTGAVTSSNYANWVQQKPGQAPRGLIGGTNKRAPWTPARFSGSLLGGKAALTLSGAQPEDEAEYYCALWYSNLWVFGGGTKLTVLGGGGSDKTHTCPPCPAPELLGGPSVFLFPPKPKDTLMISRTPEVTCVVVAVSHEDPEVKFNWYVDGVEVHNAKTKPREEQYASTYRVVSVLTVLHQDWLNGKEYKCKVSNKALAAPIEKTISKAKGQPREPQVCTLPPSREEMTKNQVSLSCAVKGFYPSDIAVEWESNGQPENNYKTTPPVLDSDGSFFLVSKLTVDKSRWQQGNVFSCSVMHEALHNHYTQKSLSLSPGK
light: EIVMTQSPATLSVSPGERATLSCRASQDVGTAVAWYQQKPGQAPRLLIYWASTRHTGIPARFSGSGSGTEFTLTISSLQSEDFAVYFCQQYANFPLYTFGQGTKLEIKRTVAAPSVFIFPPSDEQLKSGTASVVCLLNNFYPREAKVQWKVDNALQSGNSQESVTEQDSKDSTYSLSSTLTLSKADYEKHKVYACEVTHQGLSSPVTKSFNRGEC
chain: SQQIYGVVYGNVTFHVPSNVPLKEVLWKKQKDKVAELENSEFRAFSSFKNRVYLDTVSGSLTIYNLTSSDEDEYEMESPNITDTMKFFLYVLESGGGGSDKTHTCPPCPAPELLGGPSVFLFPPKPKDTLMISRTPEVTCVVVAVSHEDPEVKFNWYVDGVEVHNAKTKPREEQYASTYRVVSVLTVLHQDWLNGKEYKCKVSNKALAAPIEKTISKAKGQPREPQVYTLPPCREEMTKNQVSLWCLVKGFYPSDIAVEWESNGQPENNYKTTPPVLDSDGSFFLYSKLTVDKSRWQQGNVFSCSVMHEALHNHYTQKSLSLSPGK
Survival (survivors/total) ([1]; 0.003 mg/kg): 8/8
Survival (survivors/total) ([1]; 0.01 mg/kg): 8/8
Survival (survivors/total) ([1]; 0.03 mg/kg): 8/8
Survival (survivors/total) ([1]; 0.1 mg/kg): 8/8
Survival (survivors/total) ([1]; 0.3 mg/kg): 8/8
Δ Body weight from initial (%) (Mean ± SEM) Day 24 ([2]; 0.01 mg/kg): 12.7 ± 1.8%
Δ Tumor burden from initial (mm^3) (Mean ± SEM) Day 24 ([2]; 0.01 mg/kg): 1139.3 ± 155.7 mm^3
ΔT/ΔC (%) ([2]; 0.01 mg/kg): 100%
Δ Body weight from initial (%) (Mean ± SEM) Day 24 ([2]; 0.03 mg/kg): 4.8 ± 3.7%
Δ Tumor burden from initial (mm^3) (Mean ± SEM) Day 24 ([2]; 0.03 mg/kg): 954.8 ± 180.1 mm^3
ΔT/ΔC (%) ([2]; 0.03 mg/kg): 90.3%
Δ Body weight from initial (%) (Mean ± SEM) Day 24 ([2]; 0.1 mg/kg): 0.3 ± 2.5%
Δ Tumor burden from initial (mm^3) (Mean ± SEM) Day 24 ([2]; 0.1 mg/kg): 843.2 ± 196.5 mm^3
ΔT/ΔC (%) ([2]; 0.1 mg/kg): 79.8%
Δ Body weight from initial (%) (Mean ± SEM) Day 24 ([2]; 0.3 mg/kg): −3.0 ± 2.2%
Δ Tumor burden from initial (mm^3) (Mean ± SEM) Day 24 ([2]; 0.3 mg/kg): 284.0 ± 200.9 mm^3
ΔT/ΔC (%) ([2]; 0.3 mg/kg): 26.9%
Δ Body weight from initial (%) (Mean ± SEM) Day 24 ([2]; 1.0 mg/kg): 3.1 ± 2.5%
Δ Tumor burden from initial (mm^3) (Mean ± SEM) Day 24 ([2]; 1.0 mg/kg): 35.5 ± 57.6 mm^3
ΔT/ΔC (%) ([2]; 1.0 mg/kg): 0.05* %
binding to T cells (MFI) (T cells): strongest binder followed by CD3med TSP1
killing ability upon repeated challenges with target cells (OCI-LY-19 cells): next best
killing ability upon repeated challenges with target cells (Karpas 422 cells): next best
Δ Body weight from initial (%) (Mean ± SEM) Day 36 ([3]; 0.1 mg/kg): 0.165 ± 2.561%
Δ Tumor burden from initial (mm^3) (Mean) Day 36 ([3]; 0.1 mg/kg): −19.77 mm^3
Regression (%) ([3]; 0.1 mg/kg): 13.51%
Δ Body weight from initial (%) (Mean ± SEM) Day 36 ([3]; 0.3 mg/kg): 3.214 ± 1.737%
Δ Tumor burden from initial (mm^3) (Mean) Day 36 ([3]; 0.3 mg/kg): −124.57 mm^3
Regression (%) ([3]; 0.3 mg/kg): 85.13%
Δ Body weight from initial (%) (Mean ± SEM) Day 36 ([3]; 1.0 mg/kg): 3.839 ± 1.597%
Δ Tumor burden from initial (mm^3) (Mean) Day 36 ([3]; 1.0 mg/kg): −132.92 mm^3
Regression (%) ([3]; 1.0 mg/kg): 90.86%
cytotoxic activity (Karpas422 target cells): show cytotoxic activity
cytotoxic activity (Toledo target cells): showed cytotoxic activity
cytotoxic activity (Nalm6 target cells): showed cytotoxic activity
cytotoxic activity (Oci-Ly19 target cells): showed cytotoxic activity
